From article PMC4336329 (PLoS ONE, 2015)
Out of some 310,000 compounds screened, about 14,000 (4.5%) showed an effect of 50% or more. The effect is printed as a negative number. The list shows a part of the results.

biological target: human ether-à-go-go-related gene (hERG) potassium channel (human, UniProt Q12809); assay: primary screen, population patch clamp on CHO cells stably expressing hERG
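Further: peak tail current of the secondary pulse compared with the same well before compound.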

Chain of human ether-à-go-go-related gene (hERG) potassium channel (Q12809 whole entry, looked up): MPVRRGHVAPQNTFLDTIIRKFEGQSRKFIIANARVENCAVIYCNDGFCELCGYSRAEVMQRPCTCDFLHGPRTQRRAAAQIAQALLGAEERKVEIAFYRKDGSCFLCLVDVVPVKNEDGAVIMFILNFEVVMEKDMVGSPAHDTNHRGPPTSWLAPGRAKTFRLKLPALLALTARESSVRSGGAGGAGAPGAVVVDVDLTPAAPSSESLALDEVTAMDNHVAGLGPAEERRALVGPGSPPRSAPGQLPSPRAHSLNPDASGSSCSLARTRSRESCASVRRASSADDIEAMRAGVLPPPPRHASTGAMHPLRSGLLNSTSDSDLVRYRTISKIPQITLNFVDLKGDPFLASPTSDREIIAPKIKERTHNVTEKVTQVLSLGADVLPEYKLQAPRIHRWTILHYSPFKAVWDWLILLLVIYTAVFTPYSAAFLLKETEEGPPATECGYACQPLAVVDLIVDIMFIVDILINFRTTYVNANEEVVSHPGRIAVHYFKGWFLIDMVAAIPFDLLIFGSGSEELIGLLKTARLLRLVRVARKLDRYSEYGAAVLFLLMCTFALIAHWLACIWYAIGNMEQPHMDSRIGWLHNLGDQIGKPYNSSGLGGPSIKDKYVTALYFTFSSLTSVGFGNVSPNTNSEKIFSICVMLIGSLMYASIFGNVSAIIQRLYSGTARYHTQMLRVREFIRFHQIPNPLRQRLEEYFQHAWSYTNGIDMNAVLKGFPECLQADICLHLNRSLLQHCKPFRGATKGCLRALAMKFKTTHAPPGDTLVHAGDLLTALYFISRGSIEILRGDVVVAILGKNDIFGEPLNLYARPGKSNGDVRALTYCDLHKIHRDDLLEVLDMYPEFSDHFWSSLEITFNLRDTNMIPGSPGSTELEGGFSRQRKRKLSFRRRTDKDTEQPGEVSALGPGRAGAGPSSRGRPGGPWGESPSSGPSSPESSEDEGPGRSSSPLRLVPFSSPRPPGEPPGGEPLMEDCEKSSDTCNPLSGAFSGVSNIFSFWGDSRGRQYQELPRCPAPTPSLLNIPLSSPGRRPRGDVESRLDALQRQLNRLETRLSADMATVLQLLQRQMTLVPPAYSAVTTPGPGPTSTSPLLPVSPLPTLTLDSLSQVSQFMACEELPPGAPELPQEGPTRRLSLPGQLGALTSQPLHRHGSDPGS

Structure (SMILES)	hERG current change (%, negative = inhibition) at 10uM
O=C(O)c1ccccc1-c1cn2cc(Cl)ccc2n1	25%
O=C(/C=C/c1ccccc1)N1CCN(CCN2C(=O)c3cccc4cccc(c34)C2=O)CC1	-47.7%
Cc1ccc(OCCCCN2CCc3ccccc3C2)c(C)c1.Cl	-34.1%
N#C/C(=C\c1cn(CCOc2ccccc2)c2ccccc12)C(=O)NCC1CCCO1 (centres unmarked)	-11.7%
Cc1ccc(N2CC(C(=O)OCC(=O)c3ccc[nH]3)CC2=O)cc1 (centres unmarked)	-24.2%
Cc1ccc(CN(c2ccc(C(=O)Nc3cccnc3)cc2)S(C)(=O)=O)cc1	-11.2%
CCN1C(c2ccccc2)=C(c2ccccc2)S/C1=C\C=C1/SC(=S)N(C)C1=O	15%
Cc1ccc(NC(=S)N/N=C2/CCCc3c(C)cc(C)cc32)cc1	-6.41%
Cc1ccc(NC(=S)N/N=C/c2c(C)nn(-c3ccccc3)c2N2CCCC2)cc1	12.5%
NC(=O)c1ccc(-c2nnn(CC(=O)N(C3CCCCC3)C3CCS(=O)(=O)C3)n2)cc1 (centres unmarked)	10%
CCCOc1ccc(Cc2c(Cl)nc(SC)nc2NC)cc1	16.9%
Cc1ccc(C(C)C)c(OCCN2CCc3ccccc3C2)c1.Cl	14.5%
COc1ccc2cc(C#N)c(Nc3cccc(F)c3)nc2c1	27.2%
CCNC(=S)N(Cc1ccccc1)Cc1nc2ccccc2c(=O)[nH]1	-7.25%
COC(=O)c1sc(N)c(C(=O)OC)c1CSc1nnnn1C	-12.2%
O=C(C1CCC(C(=O)N2CCCCC2)CC1)N1CCCCC1 (centres unmarked)	6.09%
Cc1ccc(-c2cc(C(F)F)nc3sc4c(=O)[nH]cnc4c23)cc1	6.02%
COc1ccccc1CN1CC(C(=O)N(Cc2cnn(C)c2)C(C)C)CCC1=O (centres unmarked)	-4.71%
CC(=O)OC[C@H]1O[C@@H](Sc2cccc3cccnc23)[C@H](OC(C)=O)[C@@H](OC(C)=O)[C@@H]1OC(C)=O	-11.4%
CC1CCN(C(=O)COc2ccc(S(=O)(=O)N3CCOCC3)cc2)CC1	-1.39%
Cc1ccc(C)c(Cn2c3ccccc3c3cnn(CC(=O)NCCN4CCOCC4)c(=O)c32)c1	-45%
CCC(c1nnnn1Cc1ccco1)N(Cc1cc2cc(OC)ccc2[nH]c1=O)C1CCCCC1 (centres unmarked)	-6.37%

Structure (SMILES)	hERG current change (%, negative = inhibition) at 10uM
Oc1cccc(O)c1O	18.3%
CC(=O)c1c(C)[nH]c(C(=O)OCC(=O)NCc2ccc3c(c2)OCO3)c1C	9.8%
O=C(O)C(=O)Nc1ccc(NC(=O)C(c2ccccc2)c2ccccc2)cc1	20.9%
CS(=O)(=O)N1CCCC(C(=O)NCc2cccs2)C1 (centres unmarked)	2.92%
O=C(Cc1c(Cl)cccc1Cl)N/N=C/c1cccnc1	5.87%
C#Cc1ccc([C@H]2C=C(C(=O)N3CCN(Cc4ccc5c(c4)OCO5)CC3)O[C@@H](OCc3ccc(CO)cc3)C2)cc1	-7.23%
CCCn1nc2cc(C(=O)NCCc3ccc(C)cc3)ccc2c1OCC	-25.8%
CNc1nc(N)c([N+](=O)[O-])c(N2CCCCCC2)n1	17.5%
COc1ccc(NC(=O)CC23CC4CC(C2)CC(n2nnc(C)n2)(C4)C3)cc1	-7.42%
COCCNC(=S)N1CCC(NC(=O)C23CC4CC(CC(C4)C2)C3)CC1	-0.986%
O=C(CSc1ccccc1)NN1C(=O)c2ccccc2C1=O	13.6%
CNC(=O)c1[nH]cnc1C(=O)NCC(=O)OC(C)(C)C	-3.22%
O=C(NCc1cccs1)c1cc(-c2ccccn2)nc2ccc(Br)cc12	18.2%
O=C1OC2(CCCCC2)OC(=O)C1=CNc1ccc2c(c1)OCO2	3.56%
Cc1nnnn1-c1ccc(CC(=O)O)cc1	5.43%
COc1ccc(-c2[nH]nc3c2C(c2ccccc2OC(=O)N2CCOCC2)C(C#N)=C(N)O3)cc1 (centres unmarked)	4.69%
COc1ccc(CNC(=O)c2csc(Cc3ccccc3)n2)cc1	-11.6%
COc1ccc(OC)c(C2C3=C(CCCC3=O)Nc3c2c(=O)n(C)c(=O)n3C)c1 (centres unmarked)	-19%
CCCCS(=O)CC(O)COCC (centres unmarked)	9.24%
CC(Sc1nc(N)cc(=O)[nH]1)C(=O)Nc1nc2c(s1)CCCC2 (centres unmarked)	18.7%
C=C(C)CN(CC)C(=O)CN1C(=O)NC2(CCCc3ccccc32)C1=O (centres unmarked)	11.8%
CCc1ccc(C(=O)NNC(=O)c2ccc(=O)n(C)n2)cc1	10%
